# Source: publication PMC12136788
# Some of the results follow.
# B1: chr13:49308649:49310813:-|three_prime_utr|ENSG00000102547|control|control|control (ssRNA)
# RNA: GGGAGUUCUACAGUCCGACGAUCGUCAUCAUUCUUGGGAAGACUUUGGAGGUGCCUAUUUUUUCUGCUGUAAUUGUUCUGGGUAGAUGGAGUAUAAACAUUUGAAUGGAAAAAAAUUAACCUAGAAUAAUAUAUUCAUUUUAGCAACAGAGGAUUGAGCAUCA
# B2: chr11:119314942:119315043:-|CDS|ENSG00000076706|msi1|total|mutant (ssRNA)
# RNA: GGGAGUUCUACAGUCCGACGAUCGGGAGACUCUGCCCCUCUUGCCGCCCAGGACCCUUCUCCUCCUCUGUGUCUCCUCCCAUCCGGUCCACAAGGAGAAGCGGACGCUCAUCUUCCGUGUGCGCCAGGGCCAGGGCCAGAGCGCAACAGAGGAUUGAGCAUCA
# B3: chr19:54923508:54923872:-|three_prime_utr|ENSG00000167634|control|control|control (ssRNA)
# RNA: GGGAGUUCUACAGUCCGACGAUCCGGGAUUCGGGUCUCUAAGAUGUCUUAUGAAUGCAGGUCAGAGGGUCACAUGUUAACACUAGAGUCUGUCGAGAGGUAGGAUUUGACACUGGUUUUCUCACUAUUUUUGGGAGAUUCUGCCAACAGAGGAUUGAGCAUCA
# B4: chr9:130136078:130136182:+|3pUTR|ENSG00000148358|msi1_unk|FALSE|overlapping (ssRNA)
# RNA: GGGAGUUCUACAGUCCGACGAUCAGUCCAAGCAAAUCAUCCCCAUUAAAAAGCUUUUCCUGUAGGCUAGUAGGAUUUCUAAAUAGAUGAAUUCAACAGACUUGGUCCCCAUAGUCCAAGAGUAUGUAUGUGAAGAAAGUGAGCCAACAGAGGAUUGAGCAUCA
# B5: chr10:128104542:128104643:-|CDS|ENSG00000148773|msi1|total|mutant (ssRNA)
# RNA: GGGAGUUCUACAGUCCGACGAUCAAGUGAUGAGAAAAAUAUCAACACAUUUGUGGAAACUCCAGUGCAGAAACUGGACCUGCCCGGAAAUUUACCUGGCAGCAAGAGACAGCCACAGACUCCUAAGGAAAAGGCUGAGGCUCUCAACAGAGGAUUGAGCAUCA
# B6: chr4:17843545:17843646:+|3pUTR|ENSG00000109805|msi1|total|mutant (ssRNA)
# RNA: GGGAGUUCUACAGUCCGACGAUCCUGUGCGCUUCCACGUUACUUUGGCCUGUAUUAAAGCAGCCGAGCAGCAUCAGUUAUUACCGUCCAGAAAAAGUGUGCAUCAGUCAGUCACACAGAUUUAUCACAAUCUGAGGUGGGCCUCAACAGAGGAUUGAGCAUCA
# B7: chr6:122453778:122453910:-|CDS|ENSG00000111897|unk|FALSE|unique (ssRNA)
# RNA: GGGAGUUCUACAGUCCGACGAUCCCUUUCAGUGUGGUUUUAUGUAGGCAUGGCAGGUGCCUUUUGUUUCAUCCUCAUACAACUAGUCUUACUUAUUGAUUUUGCACAUUCAUGGAAUGAAUCGUGGGUUGAAAAAAUGGAAGACAACAGAGGAUUGAGCAUCA
# B8: chr7:65954205:65954306:+|CDS_3pUTR|ENSG00000196715|msi1_unk|FALSE|overlapping (ssRNA)
# RNA: GGGAGUUCUACAGUCCGACGAUCCAUCUGCAUCGUCACGUACGUGCUGAACUUCCUUCUUCUCAUUAUCAACUACAAACGACUAGUUUACUUGAACGAGGCCUGGAAGCGGCAGCUGCAACCCAAGCAGGACUGACGCCCGACCAACAGAGGAUUGAGCAUCA
# B9: chr19:57572896:57572997:-|CDS|ENSG00000083817|unk|total|mutant (ssRNA)
# RNA: GGGAGUUCUACAGUCCGACGAUCCAUCGGAGAAUCCACACUGGAGAAAGGCCUUAUGUGUGUGGUCAGUGUGGGAAAUCAUUCCGCCAAAGAGCCACCCUCAUUAAACAUCACAGAGUUCACACUGGAGAAAGGCCUUACGAGCAACAGAGGAUUGAGCAUCA
# B10: chr1:89935720:89935824:+|3pUTR|ENSG00000171492|msi1|total|mutant (ssRNA)
# RNA: GGGAGUUCUACAGUCCGACGAUCUACAAGAUAAUGCAUUUCCGGAGCCGAUACAUCUUUUAAAAUAAAACAGAGAGGAUGCACCGAAGGCUGACCGAAGACAUAACUGAAUGUUCAAUGUUUGCCGGGUUUUAAGUCAUUCAUCAACAGAGGAUUGAGCAUCA
# B11: chr18:9283235:9283336:+|3pUTR|ENSG00000101745|msi1|total|mutant (ssRNA)
# RNA: GGGAGUUCUACAGUCCGACGAUCCUGAUGGUUCAACCAGAGGUCUGGGAAACCGCACUGUUGGCCCAAACAGAACAGGCUUUCCGAAGAUAAAAGCGACAAGAAGGAAUCUGGUGAAUUUCCGUCAUCCCAGCUUUUCCGUCUCAACAGAGGAUUGAGCAUCA
# B12: chr18:9859767:9859850:+|3pUTR|ENSG00000168461|msi1_unk|total|mutant (ssRNA)
# RNA: GGGAGUUCUACAGUCCGACGAUCUUGUUACCUAACCAACCUUCACUGAAAGGCAAAUUCCGUUCAGGAGGUCCGUUUUCCGCCCGCUUUGGAAGUAAGCCUUUAUUUAUUACUUUUUGGAGGAAAUCAGAGAAGUGUCAAUGGCAACAGAGGAUUGAGCAUCA
# B13: chr15:80137503:80137604:+|CDS|ENSG00000086666|unk|FALSE|unique (ssRNA)
# RNA: GGGAGUUCUACAGUCCGACGAUCCAAUUGCUCUUACAAUUACAAAGCCGAUGCUGCUGAGAAAAUCAGAAAAGAAAAUCCAGUAGUUGUUGGUGAAAAGAUCCAAAAGAUUUGAACUCCUGCUGGAAUACAAAAUUCUUGAGCCAACAGAGGAUUGAGCAUCA
# B14: chr19:58433325:58435211:-|CDS|ENSG00000131849|control|control|control (ssRNA)
# RNA: GGGAGUUCUACAGUCCGACGAUCGAAAGAUCUACACUUGUUCGGCACCAGAAAGUUCACACCAGAGAAAGGACUUAUGAGUGUAGCCAGUGUGGGAAACUCUUCAGCCAUCUUUGUAACCUUGCACAGCAUAAAAAGAUUCAUCAACAGAGGAUUGAGCAUCA
# B15: ENSG00000021776:stop:overlap|stop_codon|ENSG00000021776|stop_codon|NA|stop_codon (ssRNA)
# RNA: GGGAGUUCUACAGUCCGACGAUCCUGCACCGGCAGAAGCUAACACACCUCAGGAUGCCACAUCUGCCCCGGAAGAGACCAAGUAGCCAAACUGUAGUCCUUCUAAAGGAGGACAUGGCAGUCAAAAAGUCUGAGUAAAGCUGUCAACAGAGGAUUGAGCAUCA
# B16: chr3:48693060:48693174:-|CDS|ENSG00000068745|unk|total|mutant (ssRNA)
# RNA: GGGAGUUCUACAGUCCGACGAUCCCUUCCAGGUGUGGUAUCUGUGCGCUUUGAAGAAGAUGAAGACAGGAACUUGUGUCUAACCGCAUAUCCAUUGAAAGGGGACCAUGGAAUUGUGGACAUUGCCGAUAAUUCAGACUGUGACAACAGAGGAUUGAGCAUCA
# B17: chr12:57028516:57028881:-|three_prime_utr|ENSG00000166866|control|control|control (ssRNA)
# RNA: GGGAGUUCUACAGUCCGACGAUCUUAAACUACCCUUGAAGAGGACCCUUGUCCCAAACCCUUCUUGUUCUCUCCUCCAAAAGUAGCUUCCUCCAACCCGCAGCCUCUCUGCACACUAAUAAAACAUGUGGCUUGGAAAGGUUCCAACAGAGGAUUGAGCAUCA
# B18: chr3:98797769:98798349:-|3pUTR|ENSG00000057019|msi1|total|mutant (ssRNA)
# RNA: GGGAGUUCUACAGUCCGACGAUCUUGUUUUUGAUACCUCCUGGCAGCUUCCAUGUCACCACUUGUUCAUACCUGCCCAGAGCCCGUUUCCGACAUGGCAAAACCGAAAUCAUCUGUAAUUUAUCCGCUAACAAUGUAAAACCACAACAGAGGAUUGAGCAUCA
# B19: chr6:30743938:30744518:-|CDS|ENSG00000137331|control|control|control (ssRNA)
# RNA: GGGAGUUCUACAGUCCGACGAUCUGGGGAACGACCCGACUCCAGAGGCCUCGACCUGACCUGUCUCCUGUUUUGUCUCCCCUUAGGUCCGGCGCCAGCUGCCAGUCGAGGAACCGAACCCAGCCAAAAGGCUUCUCUUUCUGCCAACAGAGGAUUGAGCAUCA
# B20: chr5:178210945:178211047:+|3pUTR|ENSG00000197451|unk|FALSE|unique (ssRNA)
# RNA: GGGAGUUCUACAGUCCGACGAUCCUGCUGCCGCUCUGCAGCCUGGACCUGUGGACCCUGGUUGUAAAGAGUAAAUUGUAUCUUAGGAAACCAGUGUCACCUUUUUUUCACCUUUUAAUUUUAUAUUAUUUGCGUCAUACAUUUCAACAGAGGAUUGAGCAUCA
# B21: chr10:68442948:68443070:-|CDS|ENSG00000138346|unk|total|mutant (ssRNA)
# RNA: GGGAGUUCUACAGUCCGACGAUCCCCAAUUGUGAUGCUGCCCAAAACCGAAGAAGAAACCCAGCAUCUGAAGCAAACACACUCCGAAUAUUUCAGCCUUUGGUGUCUAAUGUUAACCCUGGAGUCACAAUCGAAGGAUAAUAACAACAGAGGAUUGAGCAUCA
# B22: ENSG00000163399:stop:overlap|stop_codon|ENSG00000163399|stop_codon|NA|stop_codon (ssRNA)
# RNA: GGGAGUUCUACAGUCCGACGAUCUCAGAAAACUCAUCAUCAGGCGACGCCCUGGCGGCUGGGUGGAGAAGGAAACCUACUAUUAGCCCCCCGUCCUGCACGCCGUGGAGCAUCAGGCCACACACUCUGCAUCCGACACCCACCCAACAGAGGAUUGAGCAUCA
# Target: MSI1 full-length (mouse, UniProt Q61474 1-362)
# Test: nsRBNS (natural sequence RNA bind-n-seq); RBNS binding buffer (assumed for nsRBNS): 25 mM Tris pH 7.5, 150 mM KCl, 3 mM MgCl2, 0.01% Triton X-100, 500 ug/ml BSA, 20 U/ml SUPERase-In, 4 C; UNK is unkempt and MSI1 is Musashi-1; names of the RNAs are library labels; protein concentration not given here; high values mean tight binding
# Sequence of UniProt Q61474 (Q61474 whole entry): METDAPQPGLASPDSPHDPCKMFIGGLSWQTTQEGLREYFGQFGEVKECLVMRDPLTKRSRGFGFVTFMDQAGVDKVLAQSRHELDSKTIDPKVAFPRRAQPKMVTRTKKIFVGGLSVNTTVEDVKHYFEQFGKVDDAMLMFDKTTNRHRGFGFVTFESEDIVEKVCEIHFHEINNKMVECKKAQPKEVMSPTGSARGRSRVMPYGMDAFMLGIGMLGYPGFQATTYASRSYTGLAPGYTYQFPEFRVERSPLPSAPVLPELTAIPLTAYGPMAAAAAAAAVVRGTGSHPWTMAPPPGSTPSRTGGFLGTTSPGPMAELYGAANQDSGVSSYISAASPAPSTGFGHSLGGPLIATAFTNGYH
row,Binder,binding signal [enrichment R]
1,B1,1.23
2,B2,0.721
3,B3,0.551
4,B4,4.96
5,B5,0.365
6,B6,0.782
7,B7,0.637
8,B8,0.633
9,B9,0.303
10,B10,0.273
11,B11,0.296
12,B12,0.376
13,B13,0.345
14,B14,0.455
15,B15,0.385
16,B16,0.467
17,B17,0.675
18,B18,0.808
19,B19,0.66
20,B20,2.32
21,B21,0.373
22,B22,0.528
